B1: CPEB3 Ribozyme (parent)
chain: UAACAGGGGGCCACAGCAGAAGCGUUCACGUCGCAGCCCCUGUCAGAUUCUGGUGAAUCUGCGAAUUCUGCUGUAUAUCUC

Read counts are not given, so values of variants with three or more changes are uncertain.

Variants of B1 are the subject of the data set. The data set can be described thus: self-cleavage, relative activity (ratio to wild type); higher = more cleavage; in vitro, sequencing. Summed up:
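Libraries of CPEB3 self-cleaving ribozyme mutants came from rounds of error-prone PCR and carried barcodes, which DNA sequencing matched to variants. In vitro transcription used T7 RNA polymerase at 37°C for 5 hours, with a further 15 min in DNase I before EDTA stopped the reaction; the ribozymes cleaved during both steps. The RNA was reverse transcribed with template switching and sequenced on Illumina. Relative activity is the cleaved/total read fraction of a variant divided by that of the unmutated ribozyme, averaged over three batches with at least 5 reads.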
Take A5U A18G A64U: the self-cleavage amounted to 0.25.
For A5U A56G U72C U74C, the self-cleavage was determined as 1.08.
For A5U G10A G24A C32U A57G A65G U67A, the self-cleavage came to 0.04.
With A5U A21G U54C the figure was 0.82; with A5U A28G C40U U43A A57G G73A A75G, 0.39; with A5U C12U U25A A35G U67C U69C U72A, 0.05.
The value for A5U G7C C17G U26A was 0.07.
As to A5U C11U A15U A18U A20G A45G U69C, the self-cleavage worked out at 0.23.
Regarding A5U A28G A35U U51A, the self-cleavage is 0.2.
With A5U A13U U26A U76A the figure was 1.23; with A5U C11G U25C U43C U51C U67C, 0.06.
The value for A5U U25C C34U A47G was 0.14; that for A5U A21G U25C was 0.53.
With A5U C11G U31A, the self-cleavage came out at 0.14.
With A5U A21G G30U U41C A77G the figure was 0.13; with A5U G6A A13G C32U U51C A56U A75U, 0.04; with A5U A57U U72C, 0.89.
On to A5U A18G A20U C40A U48A, for which the self-cleavage is 0.4.
With A5U A35U A65G U67A U76C A77G the figure was 0.09.
As to A5U A18G U67C U78A, the self-cleavage stood at 0.18.
Turning to A5U A15G U58A U78A, the self-cleavage was 0.47.
On to A5U G9A U26C A45G G52A U67C U72C, for which the self-cleavage is 0.06.
Take A5U A18G A35G C59A U67C: the self-cleavage was 0.31.
The value for A5U A35U U80C was 0.67; that for A5U U25C U72C U80A was 0.37; that for A5U A47G U60C U66C was 0.15.
Consider A5U A77G U78C, for which the self-cleavage came to 0.65.
A5U U25C C27A A56G U69A A75G U80A: the self-cleavage amounted to 0.12.
Consider A5U G8U U25C C32U, for which the self-cleavage was 0.24.
Turning to A5U G19U A28C U67C, the self-cleavage was 0.31.
On to A5U G9A A20G U67C U72C, for which the self-cleavage was 0.26.
In the case of A5U A15G U74A, the self-cleavage was found to be 1.04.
With A5U U25C U26C U51A U58A U76A the figure was 0.21; with A5U G7C G33A U43C C79U, 0.03; with A5U C23A A45G G53A A65G, 0.1.
As for A5U A64G U72A A77G, the self-cleavage is 1.11.
For the variant A5U A28G C38U U58A A77U, the self-cleavage is 0.
Regarding A5U G33A U43C A45U U69C A75U, the self-cleavage came out at 0.14.
In the case of A5U G42C U66C U78C, the self-cleavage amounted to 0.17.
As to A5U A21G U41A C71U U72C U80C, the self-cleavage was found to be 0.06.
On to A5U A18G U41C U67C, for which the self-cleavage amounted to 0.21.
In the case of A5U A28G A45G U51A U80C, the self-cleavage came to 0.44.
The value for A5U A21G U43A U69C was 0.37.
A5U A45U A56U A64G U66C U76C: the self-cleavage worked out at 0.38.
With A5U A64U U67A, the self-cleavage is 0.3.
For the variant A5U U25C A45C, the self-cleavage was 0.12.
As to A5U C68U U76C, the self-cleavage amounted to 1.06.
Regarding A5U A15U U67A, the self-cleavage came to 0.36.
With A5U C29A A35G U69C U74C, the self-cleavage was 0.74.
The value for A5U A28U U60C A64G U69A U74A was 0.3; that for A5U G46U U48C was 0.46.
With A5U A47U A56G, the self-cleavage came out at 0.55.
As for A5U C17A U26C U48C, the self-cleavage was 0.09.
With A5U G6U U26C C29U U51A the figure was 0; with A5U A20G A35C U41C A77G U80A, 0.42; with A5U G70C U78C, 0.25.
As to A5U A35G A65G, the self-cleavage came out at 1.14.
The value for A5U A15G A21G U25C U26A U43C A75U was 0.53; that for A5U G6U U31C C37U U72A A77G was 0.07.
For the variant A5U A20U C23U A35G U74C, the self-cleavage worked out at 0.26.
As for A5U C12U A15G U31C U48C U49C U51C, the self-cleavage was 0.07.
A5U A64U U69A: the self-cleavage is 0.37.
The value for A5U A15U A21G U26C U76C C81U was 0.29.
For the variant A5U A15G U25C G52A A64G U72A, the self-cleavage is 0.11.
Regarding A5U A65U U69C, the self-cleavage worked out at 0.29.
The value for A5U C12G U48C was 0.49.
As for A5U A18C C39A U60C U80C, the self-cleavage was found to be 0.11.
With A5U G19U G30A A35U U41A A47U, the self-cleavage was 0.25.
Turning to A5U A28G C44U U54C A75U U78C, the self-cleavage came out at 0.13.
With A5U G7A A15G, the self-cleavage was determined as 0.4.
As for A5U U25C U72A, the self-cleavage worked out at 0.16.
Regarding A5U G7A A18U U26C U43C A45G U54C, the self-cleavage was determined as 0.04.
Take A5U A13U U78C: the self-cleavage turned out to be 1.24.
On to A5U A15C U60A, for which the self-cleavage was found to be 0.57.
With A5U C23U U26A G33C U43A U60C the figure was 0.13; with A5U A18U U25C U78A, 0.4; with A5U G33A U48C A64G, 0.18.
With A5U A35U A45G U48C U67C the figure was 0.12.
Take A5U U26C U51C U67C U74C: the self-cleavage came out at 0.15.
In the case of A5U C17G U26C C29U A57G, the self-cleavage is 0.3.
Consider A5U A15U C23G U49C A64G U67A, for which the self-cleavage was 0.23.
In the case of A5U G19A U48C, the self-cleavage was found to be 0.43.
With A5U A45G U49C U74A the figure was 0.62; with A5U U25A A28G A57U, 0.06.

For the origin of these results see the RNAGym collection of RNA variant scans (doi:10.1093/nar/gkz1192).
